Data reported in the BET-seq Pho4 binding data (Le et al. 2018).
Some of the results follow. These are noisy estimates, calculated here from bound and input reads.

These sequences were tested against T1, Pho4 (S. cerevisiae) (UniProt P07270) (assay: relative binding free energy (BET-seq); higher = weaker binding). Details: reference: library average.
T1 sequence: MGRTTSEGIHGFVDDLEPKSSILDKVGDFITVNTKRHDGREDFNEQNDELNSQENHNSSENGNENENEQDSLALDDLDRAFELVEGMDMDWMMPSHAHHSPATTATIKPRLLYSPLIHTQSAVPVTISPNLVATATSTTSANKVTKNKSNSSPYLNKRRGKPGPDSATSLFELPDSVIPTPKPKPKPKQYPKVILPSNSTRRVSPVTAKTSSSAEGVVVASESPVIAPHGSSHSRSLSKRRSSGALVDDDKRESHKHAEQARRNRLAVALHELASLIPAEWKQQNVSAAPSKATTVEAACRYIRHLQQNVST

Row | Sequence | relative binding free energy
1 | GAGTCCACGTGGCGGG | -0.05 kcal/mol
2 | GAGTGCACGTGTGGCC | 0.07 kcal/mol
3 | CTGGGCACGTGGGTAC | -0.31 kcal/mol
4 | AGTGACACGTGTACGT | 0.11 kcal/mol
5 | GTAAGCACGTGTGTGC | -0.19 kcal/mol
6 | AGACGCACGTGAGGTT | 0.12 kcal/mol
7 | TTAGTCACGTGAGTAT | 0.21 kcal/mol
8 | TGGGTCACGTGCTTTG | 0.06 kcal/mol
9 | TAAGTCACGTGCTGGA | 0.1 kcal/mol
10 | GGCTGCACGTGAGGTT | 0.25 kcal/mol
11 | TAAGACACGTGTCGTT | 0.16 kcal/mol
12 | GTGGACACGTGTTTTC | 0.09 kcal/mol
13 | GCTTTCACGTGGTTTG | 0.3 kcal/mol
14 | TTTTCCACGTGTGAAT | 0.21 kcal/mol
15 | AACATCACGTGTGTTG | 0.22 kcal/mol
16 | GTACTCACGTGAGGGA | 0.35 kcal/mol
17 | GCTTTCACGTGTGCTT | 0.37 kcal/mol
18 | AACAGCACGTGTGGTG | 0.03 kcal/mol
19 | AGTGTCACGTGACTTG | -0.03 kcal/mol
20 | GGTTGCACGTGGTCCT | 0.02 kcal/mol
21 | TATGTCACGTGATTCA | 0.16 kcal/mol
22 | TAATTCACGTGATCTG | 0.26 kcal/mol
23 | TATGGCACGTGTAATT | 0.01 kcal/mol

Row | Sequence | relative binding free energy
24 | TGGCGCACGTGCGGGT | -0.1 kcal/mol
25 | GATCACACGTGAGTGG | 0.37 kcal/mol
26 | ATGCGCACGTGGGCAT | -0.2 kcal/mol
27 | CAGGTCACGTGGGTGA | -0.06 kcal/mol
28 | ATGAGCACGTGTAATG | -0.1 kcal/mol
29 | GGGCCCACGTGGTGTT | -0.07 kcal/mol
30 | TGTCACACGTGATTGT | 0.16 kcal/mol
31 | GGTAGCACGTGTAATA | -0.03 kcal/mol
32 | GTTATCACGTGGTTGG | 0.19 kcal/mol
33 | TTGGGCACGTGTAGTA | -0.04 kcal/mol
34 | ATAGCCACGTGGTGGA | -0.13 kcal/mol
35 | TATAGCACGTGAGTTG | 0.28 kcal/mol
36 | AAGTTCACGTGGCGAT | 0.24 kcal/mol
37 | GTATACACGTGGGCGT | -0.24 kcal/mol
38 | TGGCGCACGTGGCTGG | -0.23 kcal/mol
39 | ATGGGCACGTGTTACG | -0.2 kcal/mol
40 | CTTATCACGTGTTGCT | 0.13 kcal/mol
41 | TGGGACACGTGATGGC | -0.02 kcal/mol
42 | CGGTACACGTGGGATA | 0.02 kcal/mol
43 | GATATCACGTGAGTGA | 0.32 kcal/mol
44 | GGGGTCACGTGACAGG | 0.38 kcal/mol
45 | CCGTTCACGTGGTGGC | 0.38 kcal/mol
46 | TCCAACACGTGTGTGT | 0.23 kcal/mol

Row | Sequence | relative binding free energy
47 | GGTAACACGTGGGGTC | -0.12 kcal/mol
48 | AGGGCCACGTGAGTGT | -0.02 kcal/mol
49 | ATTGTCACGTGATCGA | 0.2 kcal/mol
50 | TATTTCACGTGTATAA | 0.21 kcal/mol
51 | CGGAGCACGTGTGGTT | 0.05 kcal/mol
52 | AGAGGCACGTGCAGAT | -0.06 kcal/mol
53 | ATTATCACGTGTGAGG | 0.27 kcal/mol
54 | CTTAGCACGTGGGATG | -0.2 kcal/mol
55 | TATATCACGTGGTTGT | 0.14 kcal/mol
56 | TTGAGCACGTGGTGAA | -0.03 kcal/mol
57 | TTGGACACGTGAGTCG | 0.17 kcal/mol
58 | CGTGCCACGTGGGTGA | -0.19 kcal/mol
59 | ATGTTCACGTGCATTG | 0.12 kcal/mol
60 | TGGCACACGTGCGAGG | -0.01 kcal/mol
61 | ATTCGCACGTGGGATG | -0.01 kcal/mol
62 | TAACTCACGTGTGGGC | 0.34 kcal/mol
63 | GAGATCACGTGTCGTT | 0.24 kcal/mol
64 | TGTTTCACGTGGGGGT | 0.17 kcal/mol
65 | AGGTGCACGTGTCAGA | 0.12 kcal/mol
66 | GGGTGCACGTGTGCTT | -0.04 kcal/mol
67 | TGCTGCACGTGAATGT | 0.1 kcal/mol
68 | ATTATCACGTGTGCTA | 0.19 kcal/mol
69 | ATTAGCACGTGTGTGT | -0.01 kcal/mol

Row | Sequence | relative binding free energy
70 | CATGGCACGTGAGTAG | 0.02 kcal/mol
71 | ATTTGCACGTGAAATT | 0.33 kcal/mol
72 | TTCAGCACGTGGTATG | -0.15 kcal/mol
73 | GTGTTCACGTGCGTAG | 0.31 kcal/mol
74 | TAAAGCACGTGAGTTT | 0.3 kcal/mol
75 | AGTTTCACGTGGGGCC | 0.39 kcal/mol
76 | TTAGTCACGTGACTGT | 0.2 kcal/mol
77 | TGATGCACGTGTGTGC | -0.1 kcal/mol
78 | TGTTCCACGTGTAATG | 0.13 kcal/mol
79 | GTGTACACGTGTGTGA | 0.04 kcal/mol
80 | GAAATCACGTGTAGGT | 0.18 kcal/mol
81 | TCAGACACGTGGGTAG | -0.07 kcal/mol
82 | TTCGACACGTGGGAGT | -0.04 kcal/mol
83 | GGATACACGTGATTAT | 0.31 kcal/mol
84 | TTCTTCACGTGAAGAT | 0.46 kcal/mol
85 | GTGGGCACGTGTAAGC | 0.09 kcal/mol
86 | TTGAGCACGTGGTATG | -0.1 kcal/mol
87 | GGGGCCACGTGTTAGT | -0.05 kcal/mol
88 | AAGGGCACGTGAATAG | 0.19 kcal/mol
89 | ATGTGCACGTGTGATG | 0.05 kcal/mol
90 | TATCTCACGTGGCGTG | 0.09 kcal/mol
91 | TTTTCCACGTGTCATT | 0.09 kcal/mol
92 | TCTTGCACGTGGATGG | 0.09 kcal/mol

Row | Sequence | relative binding free energy
93 | CGATGCACGTGGTATG | -0.14 kcal/mol
94 | TCTGGCACGTGGGAGA | -0.21 kcal/mol
95 | GCGGGCACGTGTGAGT | 0.09 kcal/mol
96 | CTATTCACGTGGGTAA | 0.11 kcal/mol
97 | TGTTTCACGTGGTAGG | 0.24 kcal/mol
98 | TAGTTCACGTGTGAAG | 0.29 kcal/mol
99 | ATAGTCACGTGCTTTG | 0.16 kcal/mol
100 | CGATCCACGTGGGGTG | -0.13 kcal/mol
101 | GTACGCACGTGGTGAT | -0.22 kcal/mol
102 | TCATTCACGTGGGTGT | 0.13 kcal/mol
103 | TGTGACACGTGCTGGC | -0.08 kcal/mol
104 | AGGTGCACGTGCAGTA | -0.18 kcal/mol
105 | GTATACACGTGGCGAT | 0.27 kcal/mol
106 | GAGTGCACGTGTTGGC | 0.18 kcal/mol
107 | TCCAGCACGTGGGGTA | -0.17 kcal/mol
108 | AGGGTCACGTGGTCTG | 0.09 kcal/mol
109 | TGTCTCACGTGATGAG | 0.45 kcal/mol
110 | GAGGACACGTGGTGGA | 0.05 kcal/mol
111 | ATGGGCACGTGGACAG | -0.27 kcal/mol
112 | AGAAACACGTGTATGG | -0.02 kcal/mol
113 | TCTATCACGTGAGGGG | 0.12 kcal/mol
114 | TTTGTCACGTGGGCAT | 0.04 kcal/mol
115 | GATTTCACGTGCTGGG | 0.27 kcal/mol
